# From PubChem BioAssay AID1721 (National Center for Advancing Translational Sciences (NCATS), 2009)
# Screen size: about 290,000 compounds; about 1,100 (0.38%) were called active. The inconclusive results got no clear call from the source; some entries with a clear call stand among them for comparison. Calls come from the whole dose curve; as a rule, active = well fitted inhibition curve with a large enough effect; inconclusive = small, poorly fitted or top-dose-only effect, or another doubt; inactive = no such curve, though single readings can be large or run the other way. A potency beside an inconclusive call is a rough fit, not a confirmed value.
# Target: Pyruvate kinase (Leishmania mexicana) (UniProt Q27686)
# UniProt Q27686, sequence (Q27686 whole entry, looked up): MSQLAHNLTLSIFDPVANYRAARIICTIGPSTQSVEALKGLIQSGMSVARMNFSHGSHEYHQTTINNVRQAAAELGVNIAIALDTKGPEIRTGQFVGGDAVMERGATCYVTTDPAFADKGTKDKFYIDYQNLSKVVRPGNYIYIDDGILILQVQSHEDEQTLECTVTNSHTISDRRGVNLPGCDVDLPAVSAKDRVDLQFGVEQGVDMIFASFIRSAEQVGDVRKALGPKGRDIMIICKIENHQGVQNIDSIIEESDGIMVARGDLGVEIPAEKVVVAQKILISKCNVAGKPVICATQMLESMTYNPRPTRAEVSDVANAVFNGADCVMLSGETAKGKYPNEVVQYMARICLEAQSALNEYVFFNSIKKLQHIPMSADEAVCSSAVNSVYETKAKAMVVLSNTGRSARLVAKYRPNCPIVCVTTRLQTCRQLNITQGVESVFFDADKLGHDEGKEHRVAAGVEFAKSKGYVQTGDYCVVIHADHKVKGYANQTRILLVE
# Assay: qHTS Assay for Inhibitors of Leishmania Mexicana Pyruvate Kinase (LmPK)
# Settings: purified LmPK, Kinase-Glo ATP luminescence, 1 h; series mostly up to 57.5 µM
# How it was run: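 Pyruvate kinase activity monitored as ATP production (luciferase luminescence). Conditions: 0.1 nM enzyme, 0.5 mM PEP, 0.1 mM ADP, 1 h, RT; normalized against uninhibited and no-enzyme wells.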
# Potency is the fitted concentration of half-maximal effect; tags give direction and shape of the fitted curve.
row,Compound,Potency
1,C=CCn1c(-c2ccc(Cl)cc2)c[nH]c1=S,active: 7.94 µM
2,Cc1nc(/C(N)=N/OC(=O)c2ccc(Cl)cc2)c(C(F)(F)F)o1,"inconclusive: 28.2 µM [falling, partial curve]"
3,O=C(COC(=O)C1=COCCO1)Nc1ccccc1OC(F)F,inactive
4,O=C(/C=C/c1ccco1)Nc1ccccn1,active: 14.1 µM
5,COc1cccc(/C=N/Nc2nn3cnnc3c3ccccc23)c1,active: 25.1 µM
6,CSc1ccc(/C=N/NC(=O)c2ccc(O)cc2)cc1,"inconclusive: 25.1 µM [falling, partial curve]"
7,Cc1nonc1C(=O)N/N=C/c1ccncc1,active: 15.8 µM
8,CCN(C(=O)COC(=O)c1cccnc1Nc1ccccc1F)C1CCS(=O)(=O)C1 (stereo not given),"inconclusive: 15.8 µM [falling, partial curve]"
9,COc1ccc(C2CC(=O)c3cnc(NC(=O)c4ccco4)nc3C2)cc1 (stereo not given),inactive
10,COc1ccccc1OCCNC(=O)c1ccco1,inactive
11,Cc1nc2nc(-c3ccc(F)cc3)cn2nc1C,"inconclusive: 15.8 µM [falling, partial curve]"
12,CCn1c(C(=O)N2CCc3ccccc3C2)cc2oc3ccccc3c21,inactive
13,CCOC(=O)CSc1nc(N)nc(C)c1Cl,"inconclusive: 28.2 µM [falling, single point]"
14,Cc1cc(NC(=O)c2ccccc2)ncc1NC(=O)c1ccco1,active: 14.1 µM
15,CC1Cc2cc(/C=C3/SC(=S)NC3=O)ccc2O1 (stereo not given),"inconclusive: 15.8 µM [falling, partial curve]"
16,CCc1ccc(C(=O)COC(=O)c2n[nH]c3ccccc23)cc1,"inconclusive: 25.1 µM [falling, partial curve]"
17,O=C1/C(=C/c2cccs2)Sc2ccccc21,"inconclusive: 17.8 µM [falling, partial curve]"
18,Cn1cc(CNCC2CCCO2)c(-c2ccc(Oc3ccccc3)cc2)n1 (stereo not given),inactive
19,O=C1C(Cl)=C(Nc2ccc3cn[nH]c3c2)C(=O)c2ccccc21,"inconclusive: 15.8 µM [falling, partial curve]"
20,O=C(/C=C\Nc1ccc2c(c1)OCO2)c1cccs1,active: 11.2 µM
21,CN(C)S(=O)(=O)c1cc(NC(=O)CN2CCN(c3ccc(O)cc3)CC2)ccc1Cl,"inconclusive: 10 µM [falling, partial curve]"
22,CCc1cc(C(c2cccc(OC)c2)N2CCOCC2)c(NC(=O)c2ccccc2)s1 (stereo not given),inactive
23,Cc1ccccc1NC(=O)c1nc2nccc(C)n2n1,"inconclusive: 25.1 µM [falling, partial curve]"
24,O=C(NCc1ccccc1)c1cccnc1,inactive
25,S=c1[nH]nc(-c2ccncc2)n1Cc1ccccc1,"inconclusive: 14.1 µM [falling, partial curve]"
26,c1ccc2c(c1)Cc1cc3ccccc3nc1-2,"inconclusive: 28.2 µM [falling, single point]"
27,O=C(O)c1ccc2nc3c(nc2c1)-c1ccccc1C3=O,"inconclusive: 25.1 µM [falling, partial curve]"

row,Compound,Potency
1,O=C(Nc1ccccn1)c1ccc2c(c1)OCCO2,"inconclusive: 22.4 µM [falling, single point]"
2,C=C1CCN([C@H](C(=O)NCc2ccc(Cl)cc2)C(C)C)S(=O)(=O)c2ccccc21,inactive
3,O=C1CCCC2=C1C(c1ccc(O)c(O)c1)Nc1ccc3ncccc3c12 (stereo not given),"inconclusive: 25.1 µM [falling, partial curve]"
4,O=C(CCC(=O)c1cccs1)NCc1ccncc1,"inconclusive: 25.1 µM [falling, partial curve]"
5,CC(C)n1c(=S)[nH]c2cc(Cl)ccc21,"inconclusive: 39.8 µM [falling, single point]"
6,Nc1ccccc1C(=O)OCCOc1ccccc1,"inconclusive: 17.8 µM [falling, partial curve]"
7,CCOc1ccc(C(=O)CSc2nnc3ccccn23)cc1,"inconclusive: 22.4 µM [falling, partial curve]"
8,C=CCn1c(C)cc(C2=NNC(=NCC)SC2)c1C,active: 14.1 µM
9,Cc1cc(-c2ccccc2)nc(-c2ccccc2)c1C,active: 7.08 µM
10,S=c1[nH]nc(-c2cccnc2)n1C1CCCCC1,active: 8.91 µM
11,CCOC(=O)c1c(S(=O)(=O)NCC(=O)Nc2cccc(C)c2)c(C)n(C)c1C,inactive
12,Cc1cc(NC(=O)c2ccc(Br)o2)ccc1NC(=O)c1ccco1,"inconclusive: 20 µM [falling, partial curve]"
13,Cc1cc(C)nc(SCc2ccc(C(=O)NNC(=O)Nc3cccc(Cl)c3)cc2)n1,inactive
14,O=C(Nc1ccc(F)c(Cl)c1)c1nsc(Cl)c1Cl,"inconclusive: 11.2 µM [falling, partial curve]"
15,CC12CCC(=O)N1C(C(=O)Nc1nnc(SCc3ccccc3F)s1)CS2 (stereo not given),"inconclusive: 5.01 µM [falling, partial curve]"
16,CCN(CC)c1ccc(NC2=C(Cl)C(=O)c3ccccc3C2=O)cc1,"inconclusive: 20 µM [falling, partial curve]"
17,O=C(Nc1ccc2c(c1)CCC2)c1ccccc1F,"inconclusive: 17.8 µM [falling, partial curve]"
18,Nc1ccc2oc(-c3ccccc3Cl)nc2c1,"inconclusive: 15.8 µM [falling, partial curve]"
19,COc1ccc(-c2csc(NC(=O)Nc3ccccc3)n2)cc1,inactive
20,O=S(=O)(Nc1nc2ccccc2nc1N1CCc2ccccc2C1)c1ccc(Br)cc1,"inconclusive: 31.6 µM [falling, single point]"
21,S=c1[nH]nc(Cc2cccs2)n1-c1ccccc1Cl,active: 10 µM
22,COc1ccc2nc3oc(C(=O)N4CCCCC4)cc3cc2c1,"inconclusive: 25.1 µM [falling, single point]"
23,O=C1NC(=S)S/C1=C/c1ccc(N2CCOCC2)o1,"inconclusive: 39.8 µM [falling, single point]"
24,CCCCn1c(Cc2ccccc2)n[nH]c1=S,"inconclusive: 12.6 µM [falling, partial curve]"
25,C=C(C)Cn1c(-c2cccs2)n[nH]c1=S,"inconclusive: 28.2 µM [falling, single point]"
26,O=C1N=c2ccc([N+](=O)[O-])cc2=C1c1sc(=O)[nH]c1O,"inconclusive: 28.2 µM [falling, single point]"
27,Cc1occc1C(=O)N/N=C/c1ccccn1,"inconclusive: 28.2 µM [falling, partial curve]"

row,Compound,Potency
1,COc1ccccc1-n1c(SCC(=O)Nc2nnc(C)s2)nc2c(c1=O)SCC2,inactive
2,O=C1N=c2ccccc2=C1c1sc(NS(=O)(=O)Cc2ccccc2)nc1O,"inconclusive: 17.8 µM [falling, partial curve]"
3,CC(C)(C)c1ccc(Cn2c(=O)cnc3ccccc32)cc1,inactive
4,O=C(Nc1cccnc1)c1ccc(Oc2ccccc2)cc1,"inconclusive: 25.1 µM [falling, partial curve]"
5,CSC1=NSC2=NC(=O)/C(=C\c3cccs3)C(=N)N12,"inconclusive: 25.1 µM [falling, single point]"
6,CCCCC(CC(O)COCCC)c1n[nH]c(=S)n1-c1ccccc1 (stereo not given),"inconclusive: 11.2 µM [falling, partial curve]"
7,COc1cc(/C=N/n2c(-c3ccccc3)n[nH]c2=S)ccc1O,"inconclusive: 10 µM [falling, partial curve]"
8,Cc1ccsc1/C=N/NC(=O)c1ccc2c(c1)OCCO2,active: 22.4 µM
9,Nc1ccc2c(c1Cl)C(=O)c1ccc(N)c(Cl)c1C2=O,"inconclusive: 28.2 µM [falling, single point]"
10,c1ccc2c(c1)CCN(c1nc3cc4c(cc3s1)OCO4)C2,"inconclusive: 11.2 µM [falling, partial curve]"
11,CC(=O)c1sc(NC(=O)c2cccs2)nc1C,"inconclusive: 39.8 µM [falling, single point]"
12,O=c1c2cn[nH]c2[nH]c(=S)n1-c1ccccc1,"inconclusive: 25.1 µM [falling, single point]"
13,Cc1csc(N/N=C/c2ccccc2F)n1,inactive
14,N/C(=N\N=C\c1cccc(O)c1)c1nonc1N,active: 11.2 µM
15,c1csc(-c2nc3ccccc3[nH]2)c1,"inconclusive: 20 µM [falling, single point]"
16,Cc1nn(C)cc1-c1n[nH]c(=S)n1-c1ccc(F)cc1,"inconclusive: 25.1 µM [falling, partial curve]"
17,Cn1c(CNC(=O)C(Cc2ccccc2)NC(=O)c2ccccc2F)cc(=O)n(C)c1=O (stereo not given),inactive
18,COc1ccccc1NC(=O)CSc1nnc(-c2ccncc2)o1,"inconclusive: 14.1 µM [falling, partial curve]"
19,COc1cccc(NC(=O)Nc2ccccc2Br)c1,"inconclusive: 22.4 µM [falling, single point]"
20,O=C(NCc1ccccn1)c1cc(-c2ccccc2)nc2ccccc12,inactive
21,CN(Cc1ccccc1)C(=C(Cl)Cl)/C(=C1/NCCN1C)[N+](=O)[O-],"inconclusive: 39.8 µM [falling, single point]"
22,O=C1/C(=C/c2cccs2)CCc2ccccc21,"inconclusive: 39.8 µM [falling, single point]"
23,C/C(=N/OC(=O)c1ccc(C(F)(F)F)cc1)c1oc(C)nc1C,"inconclusive: 25.1 µM [falling, partial curve]"
24,O=C(Cc1cccs1)N/N=C/C=C/c1ccccc1,inactive
25,NC(=O)c1cc2ccccc2oc1=NCc1ccccc1,inactive
26,Oc1ccccc1/C=N/c1c(-c2ccco2)nc2ccccn12,"inconclusive: 22.4 µM [falling, partial curve]"
